In PMC9911399, “Two distinct binding modes provide the RNA-binding protein RbFox with extraordinary sequence specificity”:
Changes are numbered by the printed parent chain; changes in the protein carry UniProt numbers. This is one part of the list.

T1: RBFOX1 RRM RbFoxmut (Fox-RRM*) (Homo sapiens, UniProt Q9NWB1 109-208, R118D;E147R;N151S;E152T)
T1 sequence: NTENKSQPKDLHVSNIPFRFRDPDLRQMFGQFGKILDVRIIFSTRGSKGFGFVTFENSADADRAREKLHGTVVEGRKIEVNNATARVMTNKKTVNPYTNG

B1: GAGUCAG (DNA:RNA)
RNA: GGGAGACCGGAAUUCAGAUUGUCCGAGUCAGUUAAAUCCCGUCGUAGCCACCA
DNA 1: CAATCTGAATTCCGGTCTCCC
DNA 2: TGGTGGCTACGACGGGATT
B2: CUUGUAU (DNA:RNA)
RNA: B1 RNA with G25C, A26U, G27U, U28G, C29U, G31U
DNA 1: CAATCTGAATTCCGGTCTCCC
DNA 2: TGGTGGCTACGACGGGATT
B3: UAGGCUC (DNA:RNA)
RNA: B1 RNA with G25U, U28G, A30U, G31C
DNA 1: CAATCTGAATTCCGGTCTCCC
DNA 2: TGGTGGCTACGACGGGATT
B4: GAUCUCU (DNA:RNA)
RNA: B1 RNA with G27U, U28C, C29U, A30C, G31U
DNA 1: CAATCTGAATTCCGGTCTCCC
DNA 2: TGGTGGCTACGACGGGATT
B5: CAGCGGG (DNA:RNA)
RNA: B1 RNA with G25C, U28C, C29G, A30G
DNA 1: CAATCTGAATTCCGGTCTCCC
DNA 2: TGGTGGCTACGACGGGATT
B6: GGCGGUC (DNA:RNA)
RNA: B1 RNA with A26G, G27C, U28G, C29G, A30U, G31C
DNA 1: CAATCTGAATTCCGGTCTCCC
DNA 2: TGGTGGCTACGACGGGATT
B7: GGGGUGA (DNA:RNA)
RNA: B1 RNA with A26G, U28G, C29U, A30G, G31A
DNA 1: CAATCTGAATTCCGGTCTCCC
DNA 2: TGGTGGCTACGACGGGATT
B8: ACGGGUA (DNA:RNA)
RNA: B1 RNA with G25A, A26C, U28G, C29G, A30U, G31A
DNA 1: CAATCTGAATTCCGGTCTCCC
DNA 2: TGGTGGCTACGACGGGATT
B9: CAAACCA (DNA:RNA)
RNA: B1 RNA with G25C, G27A, U28A, A30C, G31A
DNA 1: CAATCTGAATTCCGGTCTCCC
DNA 2: TGGTGGCTACGACGGGATT
B10: AGUAUUC (DNA:RNA)
RNA: GGGAGACCGGAAUUCAGAUUGUCCAGUAUUCUUAAAUCCCGUCGUAGCCACCA
DNA 1: CAATCTGAATTCCGGTCTCCC
DNA 2: TGGTGGCTACGACGGGATT
B11: CAGUCAA (DNA:RNA)
RNA: B1 RNA with G25C, G31A
DNA 1: CAATCTGAATTCCGGTCTCCC
DNA 2: TGGTGGCTACGACGGGATT
B12: GCCAGUU (DNA:RNA)
RNA: B10 RNA with A25G, G26C, U27C, U29G, C31U
DNA 1: CAATCTGAATTCCGGTCTCCC
DNA 2: TGGTGGCTACGACGGGATT
B13: GUAAAGU (DNA:RNA)
RNA: B10 RNA with A25G, G26U, U27A, U29A, U30G, C31U
DNA 1: CAATCTGAATTCCGGTCTCCC
DNA 2: TGGTGGCTACGACGGGATT
B14: GAUUUGA (DNA:RNA)
RNA: B1 RNA with G27U, C29U, A30G, G31A
DNA 1: CAATCTGAATTCCGGTCTCCC
DNA 2: TGGTGGCTACGACGGGATT
B15: UGUUCGA (DNA:RNA)
RNA: B10 RNA with A25U, A28U, U29C, U30G, C31A
DNA 1: CAATCTGAATTCCGGTCTCCC
DNA 2: TGGTGGCTACGACGGGATT
B16: CAACACG (DNA:RNA)
RNA: B1 RNA with G25C, G27A, U28C, C29A, A30C
DNA 1: CAATCTGAATTCCGGTCTCCC
DNA 2: TGGTGGCTACGACGGGATT
B17: GCUUCAC (DNA:RNA)
RNA: B1 RNA with A26C, G27U, G31C
DNA 1: CAATCTGAATTCCGGTCTCCC
DNA 2: TGGTGGCTACGACGGGATT
B18: UAAAUCU (DNA:RNA)
RNA: B10 RNA with A25U, G26A, U27A, U30C, C31U
DNA 1: CAATCTGAATTCCGGTCTCCC
DNA 2: TGGTGGCTACGACGGGATT
B19: UCAGUUC (DNA:RNA)
RNA: B10 RNA with A25U, G26C, U27A, A28G
DNA 1: CAATCTGAATTCCGGTCTCCC
DNA 2: TGGTGGCTACGACGGGATT
B20: AAGCAUA (DNA:RNA)
RNA: B10 RNA with G26A, U27G, A28C, U29A, C31A
DNA 1: CAATCTGAATTCCGGTCTCCC
DNA 2: TGGTGGCTACGACGGGATT
B21: GUCUACG (DNA:RNA)
RNA: B1 RNA with A26U, G27C, C29A, A30C
DNA 1: CAATCTGAATTCCGGTCTCCC
DNA 2: TGGTGGCTACGACGGGATT
B22: AUGACUG (DNA:RNA)
RNA: B10 RNA with G26U, U27G, U29C, C31G
DNA 1: CAATCTGAATTCCGGTCTCCC
DNA 2: TGGTGGCTACGACGGGATT
B23: AAAGUAC (DNA:RNA)
RNA: B10 RNA with G26A, U27A, A28G, U30A
DNA 1: CAATCTGAATTCCGGTCTCCC
DNA 2: TGGTGGCTACGACGGGATT
B24: CGUUUAC (DNA:RNA)
RNA: B10 RNA with A25C, A28U, U30A
DNA 1: CAATCTGAATTCCGGTCTCCC
DNA 2: TGGTGGCTACGACGGGATT
B25: ACAGUGA (DNA:RNA)
RNA: B10 RNA with G26C, U27A, A28G, U30G, C31A
DNA 1: CAATCTGAATTCCGGTCTCCC
DNA 2: TGGTGGCTACGACGGGATT
B26: CCUGAUC (DNA:RNA)
RNA: B10 RNA with A25C, G26C, A28G, U29A
DNA 1: CAATCTGAATTCCGGTCTCCC
DNA 2: TGGTGGCTACGACGGGATT
B27: GCGGAUG (DNA:RNA)
RNA: B1 RNA with A26C, U28G, C29A, A30U
DNA 1: CAATCTGAATTCCGGTCTCCC
DNA 2: TGGTGGCTACGACGGGATT
B28: CUACUCG (DNA:RNA)
RNA: B10 RNA with A25C, G26U, U27A, A28C, U30C, C31G
DNA 1: CAATCTGAATTCCGGTCTCCC
DNA 2: TGGTGGCTACGACGGGATT
B29: GAUCACA (DNA:RNA)
RNA: B1 RNA with G27U, U28C, C29A, A30C, G31A
DNA 1: CAATCTGAATTCCGGTCTCCC
DNA 2: TGGTGGCTACGACGGGATT
B30: UCCUAAC (DNA:RNA)
RNA: B1 RNA with G25U, A26C, G27C, C29A, G31C
DNA 1: CAATCTGAATTCCGGTCTCCC
DNA 2: TGGTGGCTACGACGGGATT
B31: CGAUUUU (DNA:RNA)
RNA: B10 RNA with A25C, U27A, A28U, C31U
DNA 1: CAATCTGAATTCCGGTCTCCC
DNA 2: TGGTGGCTACGACGGGATT

molecular target: T1, RBFOX1 RRM RbFoxmut (Fox-RRM*); experiment: EMSA; HiTS-Eq, 1 nM pool, 10 min; buffer printed only for the single-RNA assays: 10 mM Tris pH 7.5, 150 mM NaCl, 3.4 mM EDTA, 0.001% NP-40, 30 C; conditions: tags: His6 N-terminal (pET28a); label: 5' 32P
In short: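 A pool of RNA with 7 randomized nucleotides, 5′-radiolabelled and with DNA-annealed flanks, was equilibrated at 1 nM for 10 min in 50 µL with purified RbFox RRM, wild type or mutant, across increasing protein concentrations. Free RNA was separated by 8% native PAGE, excised, reverse-transcribed, barcoded by PCR and sequenced. Relative association constants were obtained from read-count changes of each RNA species versus the control reaction and normalised to the cognate motif.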

With B1 as the binder, how does the binding signal read?
The binding signal was 0.116 KA relative to UGCAUGU.

Which binding signal does the source give for B2 here?
Its binding signal is 0.151 KA relative to UGCAUGU.

With B3 as the binder, how does the binding signal read?
Its binding signal is 0.0529 KA relative to UGCAUGU.

For B4, which binding signal is on record?
The binding signal was 0.0673 KA relative to UGCAUGU.

With B5 as the binder, how does the binding signal read?
Its binding signal is 0.0632 KA relative to UGCAUGU.

How did the binding signal turn out when B6 was run?
Its binding signal is 0.177 KA relative to UGCAUGU.

Which binding signal does the source give for B7 here?
The binding signal was 0.168 KA relative to UGCAUGU.

B8 was tested. Which binding signal did it give?
The binding signal was 0.16 KA relative to UGCAUGU.

How did the binding signal turn out when B9 was run?
The binding signal was 0.106 KA relative to UGCAUGU.

Which binding signal does the source give for B10 here?
Its binding signal is 0.1 KA relative to UGCAUGU.

With B11 as the binder, how does the binding signal read?
The binding signal was 0.0766 KA relative to UGCAUGU.

How did the binding signal turn out when B12 was run?
Its binding signal is 0.0611 KA relative to UGCAUGU.

With B13 as the binder, how does the binding signal read?
Its binding signal is 0.101 KA relative to UGCAUGU.

With B14 as the binder, how does the binding signal read?
Its binding signal is 0.0575 KA relative to UGCAUGU.

With B15 as the binder, how does the binding signal read?
The binding signal was 0.203 KA relative to UGCAUGU.

B16 was tested. Which binding signal did it give?
The binding signal was 0.0902 KA relative to UGCAUGU.

Which binding signal does the source give for B17 here?
The binding signal was 0.0851 KA relative to UGCAUGU.

Which binding signal does the source give for B18 here?
The binding signal was 0.0407 KA relative to UGCAUGU.

For B19, which binding signal is on record?
Its binding signal is 0.0984 KA relative to UGCAUGU.

B20 was tested. Which binding signal did it give?
The binding signal was 0.0958 KA relative to UGCAUGU.

How did the binding signal turn out when B21 was run?
Its binding signal is 0.12 KA relative to UGCAUGU.

For B22, which binding signal is on record?
Its binding signal is 0.177 KA relative to UGCAUGU.

How did the binding signal turn out when B23 was run?
Its binding signal is 0.097 KA relative to UGCAUGU.

With B24 as the binder, how does the binding signal read?
Its binding signal is 0.148 KA relative to UGCAUGU.

B25 was tested. Which binding signal did it give?
The binding signal was 0.121 KA relative to UGCAUGU.

Which binding signal does the source give for B26 here?
Its binding signal is 0.0568 KA relative to UGCAUGU.

Which binding signal does the source give for B27 here?
Its binding signal is 0.261 KA relative to UGCAUGU.

With B28 as the binder, how does the binding signal read?
Its binding signal is 0.0905 KA relative to UGCAUGU.

How did the binding signal turn out when B29 was run?
The binding signal was 0.0738 KA relative to UGCAUGU.

How did the binding signal turn out when B30 was run?
Its binding signal is 0.0962 KA relative to UGCAUGU.

Which binding signal does the source give for B31 here?
Its binding signal is 0.0883 KA relative to UGCAUGU.
